# Screen size: about 280,000 compounds; about 100 (0.036%) were called active. The inconclusive results got no clear call from the source; some entries with a clear call stand among them for comparison. Calls follow the shape of the dose curve; as a rule, active = well fitted inhibition curve with a large enough effect in the signal ratio, with a control signal flat (not every such curve was filed as active); inconclusive = small, poorly fitted or top-dose-only effect, or effect the other way, or a change in a side signal; inactive = no such curve, though single readings can be large or run the other way; the % refers to the signal ratio. Potencies of inconclusive entries are doubtful fits and often do not repeat. A note “side channel” means that the fit belongs to a control or component signal, not to the main read-out.
# Target: Muscleblind-like protein 1 (Homo sapiens) (UniProt Q9NR56)
# Assay: qHTS Assay for Inhibitors of MBNL1-poly(CUG) RNA binding
# Conditions: TR-FRET MBNL1-His/biotin-(CUG)12 binding, 665/545 ratio; activity change, negative = inhibition: at 57.5 µM (top of the series)
# Method in brief: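 His-tagged MBNL1 binding to biotinylated (CUG)12 RNA was measured by TR-FRET using terbium anti-His antibody (0.055 ng/ul final) and streptavidin-XL665 (5 nM final). Compounds were titrated 92 nM to 58 uM; 60 min at room temperature.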
# % is scaled to controls: 0 for no effect and ±100 for the full control effect; potency is read from the fitted curve at half-maximal effect; tags tell the direction and shape of the fitted curve or compound fluorescence and quenching.
# Sequence of UniProt Q9NR56 (Q9NR56 whole entry, looked up): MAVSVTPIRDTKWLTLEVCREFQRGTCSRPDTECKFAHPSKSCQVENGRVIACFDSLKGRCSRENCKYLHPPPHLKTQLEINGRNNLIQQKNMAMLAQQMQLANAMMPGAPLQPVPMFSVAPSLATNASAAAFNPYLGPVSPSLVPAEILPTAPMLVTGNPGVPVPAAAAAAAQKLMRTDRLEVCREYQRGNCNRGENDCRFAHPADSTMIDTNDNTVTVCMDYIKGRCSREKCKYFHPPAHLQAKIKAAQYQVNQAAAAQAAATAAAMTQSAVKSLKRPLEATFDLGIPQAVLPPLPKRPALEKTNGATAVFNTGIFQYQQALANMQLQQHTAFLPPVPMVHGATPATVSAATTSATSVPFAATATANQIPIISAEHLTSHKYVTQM
SMILES,Potency,"activity change, negative = inhibition"
CCOc1cc(C2/C(=C(/O)c3ccc(OC(C)C)cc3)C(=O)C(=O)N2CCCOC)ccc1O (stereo unspecified),"inconclusive: 14.1 µM [quencher, side channel, partial curve]",–
Cc1c(NC(=O)CSc2nc(-c3ccco3)cc(C(F)(F)F)n2)c(=O)n(-c2ccccc2)n1C,"inconclusive: 15.8 µM [quencher, side channel, partial curve]",–
O=C1c2ccccc2-c2n[nH]c3cccc1c23,"inconclusive: 10 µM [quencher, side channel, partial curve]",–
O=C(/C=C/c1ccc(-c2ccccc2[N+](=O)[O-])o1)c1ccco1,"inconclusive: 12.6 µM [quencher, side channel, partial curve]",–
CCCCn1c(=O)c(CCC(=O)O)nc2ccccc21,"inconclusive: 25.1 µM [quencher, side channel, single point]",–
NC(=S)N=Nc1c(O)[nH]c2cc(F)c(F)cc12,"inconclusive: 10 µM [quencher, partial curve]",–
O=C1Nc2ccc(S(=O)(=O)N3CCCC3)c3ccc(S(=O)(=O)N4CCCC4)c1c23,"inconclusive: 3.16 µM [quencher, full curve, poor fit]",–
Cc1cc([N+](=O)[O-])nn1Cc1ccc(C(=O)N/N=C/c2ccc(N(C)C)cc2)cc1,–,inconclusive: 14.7% [phenotype inactive]
O=C(CCCn1c(SCc2cccc([N+](=O)[O-])c2)nc2ccccc2c1=O)NCC1CCCO1 (stereo unspecified),"inconclusive: 25.1 µM [quencher, side channel, single point]",–
Nc1nn(S(=O)(=O)c2ccccc2)cc1-c1ccc([N+](=O)[O-])cc1,"inconclusive: 6.31 µM [quencher, side channel, partial curve]",–
CCc1nc2sc(C(C)=O)c(N)c2c2c1CCCC2,"inconclusive: 12.6 µM [quencher, side channel, partial curve]",–
CCN1C(=O)C2(C(C#N)=C(N)Oc3c2c(C)nn3-c2ccccc2)c2ccccc21 (stereo unspecified),–,inactive: 2.66%
c1nc(N2CCN(Cc3ccc4c(c3)OCO4)CC2)c2[nH]cnc2n1,–,inactive: -3.05%
CCOC(=O)c1c2c3c(cccc3n(C)c1=O)C(=O)c1ccccc1-2,"inconclusive: 3.16 µM [quencher, side channel, full curve]",–
COc1ccc(/C=N/Nc2ccc([N+](=O)[O-])cc2)cc1O,"inconclusive: 14.1 µM [quencher, side channel, partial curve]",–
CCOC(=O)CNC(=O)CSc1nc2ncc(Br)cc2[nH]1,–,inactive: -2.04%
O=C(O)CN1C(=O)/C(=C/c2ccc(N3CCCCC3)o2)SC1=S,"inconclusive: 31.6 µM [quencher, partial curve]",–
O=C(N/N=C/c1cccc2ccccc12)c1cccnc1,"inconclusive: 31.6 µM [quencher, side channel, single point]",–
S=c1[nH]nc(-c2cc(-c3ccccn3)nc3ccccc23)o1,–,inactive: 15.3%
O=C(Nn1cnc2ccccc2c1=O)c1ccc(Cl)c([N+](=O)[O-])c1,"inconclusive: 11.2 µM [quencher, side channel, partial curve]",–
Cc1ccccc1Nc1c([N+](=O)[O-])cncc1[N+](=O)[O-],"inconclusive: 11.2 µM [quencher, side channel, partial curve]",–

SMILES,Potency,"activity change, negative = inhibition"
O=C(Nc1ccc(C(F)(F)F)cc1)c1ccccc1Br,–,inactive: -5.55%
O=C1c2ccc3c4c(ccc(c24)C(=O)N1c1cccc(O)c1)CC3,"inconclusive: 39.8 µM [quencher, side channel, single point]",–
O=C(CNc1ccc2c(c1)OCO2)N/N=C\c1ccccc1Cl,–,inconclusive: 5.54% [phenotype inactive]
Cc1cccc(-c2nnc(NC(=O)c3cccs3)s2)c1,–,inactive: 33.1%
CCCn1c(C)nc2c(c1=O)c1nc3ccccc3nc1n2CCC1=CCCCC1,"inconclusive: 22.4 µM [quencher, side channel, single point]",–
COc1cccc2c(SCC(=O)N/N=C/c3ccccc3)cc(C)nc12,–,inactive: 29.9%
O=C(CCCn1cnc([N+](=O)[O-])n1)Nc1cc(Cl)ccc1O,"inconclusive: 14.1 µM [quencher, side channel, partial curve]",–
COc1ccc(S(=O)(=O)N2CCN(C(=O)NCc3ccc(C)cc3)CC2)cc1,–,inactive: -5.06%
Cc1cc(C(=O)O)ccc1N/C=C1\CCCC(C)C1=O (stereo unspecified),"inconclusive: 28.2 µM [quencher, side channel, single point]",–
O=C(c1ccc(S(=O)(=O)Cc2cc(F)ccc2F)c([N+](=O)[O-])c1)N1CCCC1,"inconclusive: 3.98 µM [quencher, side channel, full curve]",–
C=CCn1c(Cc2nc3ccccc3[nH]2)n[nH]c1=S,"inconclusive: 39.8 µM [quencher, single point]",–
O=C(Cc1nc2ccccc2[nH]c1=O)c1ccccc1,"inconclusive: 5.01 µM [quencher, side channel, full curve, poor fit]",–
C(=N\Nc1ccc2nncn2n1)/c1ccccn1,"inconclusive: 20 µM [quencher, side channel, partial curve]",–
COc1ccc(C(=O)N/C(=C\c2ccco2)C(=O)OCc2ccco2)cc1,–,inactive: 14.3%
Cc1ccccc1N=C/C=C1\N(C)c2ccccc2C1(C)C,–,inactive: 11.7%
COC(=O)c1ccc(C2Nc3ccc(/C(C)=N/NC(=O)C(OC)c4ccccc4)cc3C3C=CCC32)cc1 (stereo unspecified),"inconclusive: 12.6 µM [quencher, side channel, partial curve]",–
Cc1cc(/C=C2/NC(=O)N(c3ccccc3)C2=O)c(C)n1-c1cccnc1,"inconclusive: 15.8 µM [quencher, side channel, partial curve]",–
CC(Oc1ccc2c(-c3ccccc3)cc(=O)oc2c1)C(=O)N1CCC[C@@H]1C(N)=O (stereo partly specified),"inconclusive: 14.1 µM [quencher, side channel, partial curve]",–
CN1CCN(c2ccc(NC(=S)NC(=O)/C=C/c3ccco3)cc2)CC1,"inconclusive: 8.91 µM [quencher, side channel, partial curve]",–
COC(=O)[C@H](Cc1ccccc1)NC(=O)NCc1ccc(S(N)(=O)=O)cc1,"inconclusive: 8.91 µM [quencher, side channel, single point]",–
COc1ccc(Nc2cc3n(c(=O)n2)CCc2cc(OC)c(OC)cc2-3)c(C)c1,–,inactive: 1.3%

SMILES,Potency,"activity change, negative = inhibition"
O=C(c1cc2nc(-c3ccco3)cc(C(F)(F)F)n2n1)N1CCN(c2ccc(F)cc2)CC1,"inconclusive: 39.8 µM [quencher, side channel, single point]",–
CNC(=O)c1cccc2nc3ccccc3nc12,"inconclusive: 11.2 µM [quencher, side channel, partial curve]",–
NC(=O)COC(=O)c1sc2cc(F)ccc2c1Cl,"inconclusive: 22.4 µM [quencher, side channel, partial curve]",–
Cc1cc(N2CCN(Cc3cn(C)nc3-c3cccc(Cl)c3)CC2)cc(C)n1,–,inactive: 2.7%
C/C(=N\NC(=O)CNc1ccccc1Cl)C(C)(C)C,–,inactive: -0.385%
CC(=O)Nc1nc(C)c(-c2csc(Nc3cccc(C(C)=O)c3)n2)s1,"inconclusive: 12.6 µM [quencher, side channel, partial curve]",–
COCCCNC(=S)N1CCN(c2ccc([N+](=O)[O-])cc2)CC1,"inconclusive: 1.12 µM [quencher, side channel, single point]",–
COc1ccccc1NC(=O)Cn1nc(C(F)(F)F)c2c1CCCC2,"inconclusive: 0.794 µM [quencher, side channel, single point]",–
Oc1ccc(-c2csc(Nc3ccccn3)n2)cc1O,–,inactive: 8.5%
COc1ccc(Cn2nnnc2C(c2cc3ccc(OC)cc3[nH]c2=O)N2CCC(C)CC2)cc1 (stereo unspecified),"inconclusive: 10 µM [quencher, side channel, partial curve]",–
C/C(=N\NC(=O)c1ccncc1)c1cc2ccccc2oc1=O,"inconclusive: 25.1 µM [quencher, side channel, single point]",–
CCOc1cc(/C=N/NC(=O)c2ccncc2)ccc1OC(=O)c1ccc([N+](=O)[O-])cc1,"inconclusive: 17.8 µM [quencher, side channel, partial curve]",–
Oc1ccc(/C=N/n2cc(-c3ccccc3)[nH]c2=S)cc1,"inconclusive: 14.1 µM [quencher, side channel, partial curve]",–
O=C(COC(=O)/C=C/c1ccc(S(=O)(=O)N2CCc3ccccc32)cc1)NC1CCS(=O)(=O)C1 (stereo unspecified),"inconclusive: 20 µM [quencher, side channel, partial curve]",–
O=C(CSc1cccc2cccnc12)N1CCCC1,–,inactive: 20%
CC(=O)c1ccc(Nc2nc(N3CCOCC3)nc(N3CCOCC3)n2)cc1,–,inactive: 1.03%
CC(C)(C)c1cc(C(=O)C[n+]2ccc(C(=O)NCCCO)cc2)cc(C(C)(C)C)c1O,"inconclusive: 17.8 µM [quencher, side channel, partial curve]",–
CC(=O)Nc1c([N+](=O)[O-])cc2[nH]c(=O)[nH]c2c1[N+](=O)[O-],"inconclusive: 10 µM [quencher, side channel, partial curve]",–
O=C(Nc1cccc([N+](=O)[O-])c1)c1ccc2c(c1)C(=O)N(c1ccccn1)C2=O,"inconclusive: 14.1 µM [quencher, side channel, partial curve]",–

# From PubChem BioAssay AID2675 (National Center for Advancing Translational Sciences (NCATS), 2010)
